Data published in PMC4336329 (PLoS ONE, 2015).
The campaign covered roughly 310,000 compounds. About 2,200 (0.71%) showed an effect of 50% or more. Effects have a minus sign here. Some of the results follow.

The molecules below were run against human ether-à-go-go-related gene (hERG) potassium channel (human, UniProt Q12809) (assay: primary screen, population patch clamp on CHO cells stably expressing hERG).
Sequence of human ether-à-go-go-related gene (hERG) potassium channel (Q12809 whole entry, looked up): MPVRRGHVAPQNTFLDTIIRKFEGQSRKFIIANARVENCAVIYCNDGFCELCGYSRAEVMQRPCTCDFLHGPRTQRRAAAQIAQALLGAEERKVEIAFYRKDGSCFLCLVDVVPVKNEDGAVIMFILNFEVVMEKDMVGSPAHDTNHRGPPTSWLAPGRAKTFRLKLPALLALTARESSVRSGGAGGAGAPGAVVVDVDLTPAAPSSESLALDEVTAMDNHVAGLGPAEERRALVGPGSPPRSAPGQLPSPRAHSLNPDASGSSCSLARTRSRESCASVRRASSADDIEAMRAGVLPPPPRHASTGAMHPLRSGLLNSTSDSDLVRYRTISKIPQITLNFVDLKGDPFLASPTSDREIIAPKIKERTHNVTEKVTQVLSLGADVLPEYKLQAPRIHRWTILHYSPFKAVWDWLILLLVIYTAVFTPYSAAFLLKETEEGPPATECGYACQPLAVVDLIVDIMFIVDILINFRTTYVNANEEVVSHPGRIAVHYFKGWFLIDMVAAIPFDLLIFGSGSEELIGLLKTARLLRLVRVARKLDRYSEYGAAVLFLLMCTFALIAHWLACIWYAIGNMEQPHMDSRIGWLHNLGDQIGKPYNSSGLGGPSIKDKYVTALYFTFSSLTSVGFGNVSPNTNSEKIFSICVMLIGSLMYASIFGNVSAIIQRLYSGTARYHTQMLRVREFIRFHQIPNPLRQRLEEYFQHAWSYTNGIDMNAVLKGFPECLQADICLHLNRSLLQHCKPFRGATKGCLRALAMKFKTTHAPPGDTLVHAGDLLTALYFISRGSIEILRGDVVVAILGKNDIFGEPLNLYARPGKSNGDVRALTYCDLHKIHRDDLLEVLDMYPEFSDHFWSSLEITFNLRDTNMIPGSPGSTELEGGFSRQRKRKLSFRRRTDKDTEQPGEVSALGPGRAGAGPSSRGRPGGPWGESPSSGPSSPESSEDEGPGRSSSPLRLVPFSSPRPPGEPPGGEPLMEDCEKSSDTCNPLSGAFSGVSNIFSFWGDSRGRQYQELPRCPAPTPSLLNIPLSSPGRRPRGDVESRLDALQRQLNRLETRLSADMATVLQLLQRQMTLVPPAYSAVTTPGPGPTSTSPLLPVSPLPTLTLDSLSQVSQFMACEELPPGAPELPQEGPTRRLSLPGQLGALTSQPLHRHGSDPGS

Row | Structure (SMILES) | hERG current change (%, negative = inhibition) at 1uM [%]
1 | C/C(=N\NC(=O)c1c(Cl)c(C)nn1C)c1cccc(NC(=O)C2CCCC2)c1 | 2.36
2 | COc1ccc(-c2cccc(NC(=O)c3cccs3)c2)nn1 | 14.4
3 | COC(=O)c1cc(NC(=O)C2CC2)cc(C(=O)OC)c1 | 4.46
4 | Cc1ccc(-c2cc(C(=O)O)c3sc(N4CCCCC4)nc3n2)cc1 | 14.2
5 | O=C(NCC1CCCO1)c1ccc(NC(=O)C2C3C=CC(C3)C2C(=O)O)cc1 (centres unmarked) | -0.304
6 | CC1(C)NC(=O)N(CC(O)CN(c2ccccc2)S(=O)(=O)c2ccccc2)C1=O (centres unmarked) | 1.26
7 | O=C(Cn1c(O)c(/C=C2\C=Nc3ccccc32)sc1=O)Nc1ccc2c(c1)OCO2 | 4
8 | COc1cc2cc(C(c3nnnn3Cc3ccc(F)cc3)N3CCCCCC3)c(=O)[nH]c2cc1OC (centres unmarked) | -33.3
9 | Nc1ccc(C(=O)OCC(=O)NC2CCS(=O)(=O)C2)cc1[N+](=O)[O-] (centres unmarked) | -0.0043
10 | O=C1CC(N2CCc3ccccc32)C(=O)N1c1ccc(F)cc1 (centres unmarked) | 7.36
11 | CC1=C(C(=O)OCc2ccccc2)C(c2ccccc2OS(=O)(=O)c2ccc(C)cc2)NC(=O)N1CCCC(=O)O (centres unmarked) | 12.1
12 | C=CCNC(=O)c1onc(CSc2ccncc2)c1C(=O)NCC=C | 13.9
13 | CC(C(=O)Nc1ccc(S(=O)(=O)Nc2ncccn2)cc1)N1C(=O)c2ccccc2S1(=O)=O (centres unmarked) | 5.37
14 | O=C(NC1CCCc2ccccc21)c1ccccc1Br (centres unmarked) | -13.5
15 | COc1ccc(Cl)cc1NC(=O)CN(C)C(=O)c1ccc2n[nH]nc2c1 | 0.151
16 | O=C(CN1C(=O)c2cccc3cccc(c23)C1=O)N1CCN(c2ccccn2)CC1 | -3.98
17 | O=C1CCC(/C=C/c2ccccc2)=NN1 | 12.7
18 | CCc1c(C)nc(N)nc1N1N=C1SC(C(C)=O)C(C)=O | 12
19 | CC(C)(C)OC(=O)NCCC(=O)Oc1ccc2ccc(=O)oc2c1 | -7.24
20 | COc1ccc(C(=O)NCCSCc2cccc(Cl)c2)cc1OC | 12.7
21 | CCN(CC)c1ccc(NC(=O)CSc2nnc(N)s2)cc1C | 9.25
22 | CCN(C(=O)CSc1n[nH]c(-c2cccs2)n1)C1CCS(=O)(=O)C1 (centres unmarked) | 11.8

Row | Structure (SMILES) | hERG current change (%, negative = inhibition) at 1uM [%]
23 | O=C(CSc1nnc(-c2ccccc2)o1)N1CCc2ccccc2C1 | -2.23
24 | COc1c(Cl)ccc(Cl)c1C(=O)OCC(=O)O | 10.9
25 | CCCCC1=CC2=CC(=O)C(C)(OC(=O)c3cccs3)C(=O)C2=CO1 (centres unmarked) | 10.4
26 | CCOC(=O)c1sc(NC(=O)CSc2nc3cccnc3n2C)nc1C | 17
27 | CCOc1ccc(/C=C2/C(=O)NC(=O)N(CCc3ccc(F)cc3)C2=O)cc1 | 13.5
28 | C=CCc1ccccc1OCC(O)CNC (centres unmarked) | 16.6
29 | CSc1ccccc1C(=O)C1CCCN(Cc2ccccn2)C1 (centres unmarked) | 5.15
30 | COc1cccc(-n2c(SCC#N)nnc2-c2cnccn2)c1 | -19.4
31 | O=C(CN1CCOCC1)Nc1cccc(S(=O)(=O)N2CCCCCC2)c1 | 3.83
32 | N#CCCn1c(-c2nonc2NC(=O)c2ccccc2Cl)nc2ccccc21 | -5.19
33 | CC1=CC(=O)C2=C(C)CC(O)C3C(C)C(=O)OC3C12.O (centres unmarked) | -4.16
34 | CN(C)c1ccc(S(=O)(=O)NCC(=O)OCC(=O)NC(=O)C2CCCCC2)cc1[N+](=O)[O-] | 7.26
35 | CC1CCN(C(=O)Cn2c3ccccc3c3nc4n(c(=O)c32)CCCS4)CC1 | 10.3
36 | CCOc1ccc(S(=O)(=O)N(C)CCO)cc1-c1nc2c(C(C)(C)C)nn(C)c2c(=O)[nH]1 | 15.3
37 | CC(C)Cn1c(-c2ccco2)n[nH]c1=S | 2.56
38 | COc1ccccc1N(CC(=O)NC1CCCC1)C(=O)CCC(=O)Nc1ccccn1 | 12
39 | CCOC(=O)c1sc(C)nc1C1CCN(C(=O)OCC)CC1 | 12.4
40 | O=C(c1ccc2c(c1)OCO2)C1CCCN(C(=O)C2CCOCC2)C1 (centres unmarked) | 5.32
41 | CCCc1cc(=O)[nH]c(SCC(=O)N2CCN(c3ccccc3)CC2)n1 | 10.1
42 | CCOC(=O)c1cc(CC)sc1N1C(=O)CC(Sc2ncccc2C(=O)O)C1=O (centres unmarked) | 10.7
43 | CCOc1c(C)cnc2c1c(=O)n(Cc1cccc(Cl)c1)c(=O)n2C | -10.6
44 | CCCNC(=O)NC(=O)CSc1nc2cc(C(=O)OC)ccc2c(=O)n1-c1ccccc1 | 5.05

Row | Structure (SMILES) | hERG current change (%, negative = inhibition) at 1uM [%]
45 | COc1ccc(CN2C(=O)NC(=O)/C(=C/c3ccoc3)C2=O)cc1 | 9.03
46 | Cc1cc2oc(=O)cc(CN3CCC(C)CC3)c2cc1C | 12.8
47 | Cc1ccc(NC(=O)C2CCN(S(=O)(=O)c3ccc4c(c3)NC(=O)C(C)S4)CC2)c(C)c1 (centres unmarked) | 7.09
48 | CCN(CC)S(=O)(=O)c1ccc(Oc2ccccc2)cc1 | -5.84
49 | COc1cccc(/C=N/c2sc(Cc3ccccc3)c(C)c2C(N)=O)c1O | 1.25
50 | CCC(=NC1CC1)c1c(O)n(C2CCCCC2)c(=O)[nH]c1=O | -2.82
51 | CCN(CC1COc2ccccc2O1)C(=S)NC1CC2CCC1C2 (centres unmarked) | 3.81
52 | O=C(CSc1nc2ccccc2[nH]1)N1CCN(S(=O)(=O)c2ccc(Cl)cc2)CC1 | -3.35
53 | CC(C)[C@H]1CN=C2N(C[C@H](C)NC(=O)CCC3CCCCC3)[C@H](Cc3ccc(O)cc3)CN21 | -13
54 | NC(=O)c1ccc(NS(=O)(=O)c2ccc3ccccc3c2)cc1 | 12.6
55 | Cc1ccc(NS(=O)(=O)c2cccc(C(=O)N3CCCC(C)C3)c2)cc1 (centres unmarked) | 1.26
56 | COCCNC(=O)CN(Cc1ccc(OC)cc1)C(=O)CCC(=O)Nc1nccs1 | 9.05
57 | Cc1cc2nc(-c3ccccc3)cc(=O)n2[nH]1 | 13.2
58 | Cc1cccc(NC(=O)c2ccc(OCC3CCCO3)cc2)c1C (centres unmarked) | 7.85
59 | CC(C)NS(=O)(=O)c1ccc2c(c1)oc(=O)n2C | 14.2
60 | CCOC(=O)c1nnn2c1nc(SCC(C)=O)c1ccccc12 | 12.5
61 | CSc1nsc(SCCN2C(=O)c3ccccc3C2=O)n1 | -6.04
62 | CCCCC(=O)Nc1ccccc1N1CCOCC1 | 4.52
63 | O=C(O)c1cnn2c(-c3ccccc3)ccnc12 | -3.72
64 | O=c1c2ccccc2c(-c2ccccc2)nn1-c1cc(Cl)cc(Cl)c1 | 12.2
65 | CCCCN(CC)S(=O)(=O)c1ccc(C(=O)Nc2nnc(-c3ccccc3Cl)o2)cc1 | 10
66 | Cc1ccc(C(=O)Nc2ccc(CC(=O)O)cc2)o1 | -2.68

Row | Structure (SMILES) | hERG current change (%, negative = inhibition) at 1uM [%]
67 | CS(=O)(=O)N(CC(=O)Nc1cccc([N+](=O)[O-])c1)c1ccccc1 | 10.1
68 | CN(C)Cc1c(C(=O)N/N=C/c2cccc3ccccc23)nnn1-c1nonc1N | 13.7
69 | Cc1cc(C(=O)CSc2nc(N)cc(N)n2)c(C)n1-c1cccc(C(F)(F)F)c1 | -13
70 | O=C(CS(=O)CC(=O)N(c1ccccc1)C(C(=O)NC1CCCC1)c1cccs1)Nc1ccc(F)cc1 (centres unmarked) | 8.98
71 | NC(=O)[C@H]1CC2(CC(c3cccc(NC(=O)[C@H]4CCC(=O)N4)c3)=NO2)CN1C(=O)c1cc([N+](=O)[O-])cc([N+](=O)[O-])c1 (some centres unmarked) | 6.11
72 | Cc1ccc(O)c(NC(=O)C2CCCCC2)c1 | 13.5
73 | S=c1[nH]nc(-c2cc(-c3ccccn3)nc3ccccc23)o1 | 9.16
74 | CCCCSc1nc(C)cc(NC(=S)Nc2ccc(OC)cc2)n1 | -8.68
75 | C=CCn1c(SCc2ccc(C(=O)NCCO)cc2)nc2sc(C)c(C)c2c1=O | -3.47
76 | CCCS(=O)(=O)c1c(S(=O)(=O)CCC)c2c3ccccc3ccn2c1C(=O)OC | 2.02
77 | CCC(CC)C(=O)Nc1c2c(nn1-c1ccc(OC)cc1)CS(=O)C2 (centres unmarked) | 3.16
78 | CC(NC(=O)c1ccc(CS(=O)(=O)Cc2ccccc2F)o1)c1ccc2c(c1)OCCO2 (centres unmarked) | 10.8
79 | COc1ccc(C(=O)Nc2ccc(-c3cn4ccsc4n3)cc2)cc1S(=O)(=O)N1CCOCC1 | -0.247
80 | O=C(Nc1nccs1)c1cccc2ccccc12 | 2.03
81 | Cc1c(C(=O)Nc2ccc(C(F)(F)F)cc2)sc2ncn(CC(=O)N3CCN(c4ccccn4)CC3)c(=O)c12 | 15.9
82 | Cc1cccc(C(=O)Nc2cc(OCc3cccc(F)c3)c(Cl)cc2Cl)c1 | -9.98
83 | O=C(O)CNC(=O)c1nc(-c2ccccc2)n(-c2ccccc2)n1 | 12.9
84 | CCOC(=O)c1cccc(Nc2ncnc3ccc(C)cc23)c1 | -3.73
85 | COc1ccc(S(=O)(=O)NCc2cccnc2)cc1C(=O)N1CCCCC1 | 8.84
86 | COc1ccc(NS(=O)(=O)c2cccc(C(=O)NCc3ccccc3CN3CCCC3)c2)cc1 | -12
